# Assay results as given in PubChem BioAssay AID1347073 (National Center for Advancing Translational Sciences (NCATS), 2019).
# The whole screen tested about 45,000 compounds, of which about 200 (0.44%) were called active. About 7% were inconclusive and are not listed. Calls follow the shape of the dose curve; as a rule, active = well fitted activation curve with a large enough effect; inconclusive = small, poorly fitted or top-dose-only effect; inactive = no such curve, though single readings can be large or run the other way. The list shows a part of the results.
# Assay: qHTS of TDP-43 Inhibitors: NCGC Sytravon Library Screen; also: 0% is about no effect; nearly all actives have a fitted effect of over 55% in size
# Details: yeast TDP-43 toxicity rescue, BacTiter-Glo growth, 24 h; series mostly up to 46.1 µM; growth rescue (activation): at the top concentration
# In short: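 TDP-43-expressing yeast, pregrown in raffinose, seeded at OD600 0.02 in galactose medium with compound for 24 hr at 30 deg C. Growth read by BacTiter-Glo luminescence, so rescue of toxicity appears as activation.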
row,SMILES,growth rescue (activation)
1,Oc1nc(Nc2ccc(Cl)cc2Cl)sc1/C=C1\C=Nc2ccccc21,inactive: 15.1%
2,Cc1cccc(NC(=O)c2sc3nc(N)c(C#N)cc3c2N)c1,inactive: -2.44%
3,COc1ccc(OC)c(C(=O)CSc2nnc(Cc3cccs3)n2C)c1,inactive: -8.66%
4,COc1ccc(C2SCC(=O)N2c2c(C)n(C)n(-c3ccccc3)c2=O)cc1 (stereo not drawn),inactive: -29.1%
5,CN1CCN(C(=S)NC(=O)c2cccc(S(=O)(=O)N(C)C)c2)CC1,inactive: 8.39%
6,O=C(CC1C(=O)NCCN1Cc1ccc(-c2ccccc2)cc1)NCCc1ccccn1 (stereo not drawn),inactive: 5.52%
7,Cc1sc(NC(=O)c2ccco2)c(CN2CCN(Cc3ccccc3)CC2)c1C,inactive: 0.437%
8,CC(C)NC(=O)C1(C)CCN1C(=O)c1ccccc1Oc1ccccc1 (stereo not drawn),inactive: 10.6%
9,COc1ccc(CC(=O)Nc2cccc(C(=O)Nc3ccccc3C(=O)O)c2)cc1OC,inactive: 5.53%
10,CCCCN(C)c1c(C)nc2ccc(C(=O)Nc3ccc(OC)c(OC)c3)cn12,inactive: -1.01%
11,Cc1cc(Cl)ccc1-c1nc(NCCN(C)C)nc2ccsc12,inactive: 3.68%
12,Cc1c(NC(=O)c2cn3ccccc3n2)cccc1-n1cnnn1,inactive: -8.7%
13,COc1ccc(S(=O)(=O)N2CCCCCC2)cc1NC(=O)CN1C(=O)CNC1=O,inactive: 9.68%
14,Cn1c(N)c(N2CCN(c3ccccc3)CC2)c(=O)[nH]c1=O,inactive: -14.6%
15,O=C(Cc1ccccc1)NNC(=O)C1CCN(c2ncccn2)CC1,inactive: 3.44%
16,O=C(Nn1c(-c2ccccc2)nc2ccccc2c1=O)c1ccc([N+](=O)[O-])cc1,inactive: 3.05%
17,Cc1ccccc1/C=N/Nc1ccc(Cl)nn1,inactive: 5.84%
18,CC1(C)c2ccccc2N(CC(N)=O)C12C=Cc1ccccc1O2 (stereo not drawn),inactive: 8.66%
19,COc1ccccc1C(=O)N/C(=C\c1ccccc1)C(=O)NC(C)C(=O)O (stereo not drawn),inactive: 11.9%
20,CC(=O)N1CCCC1(C(=O)O)c1ccccc1 (stereo not drawn),inactive: 24.4%
21,CCCCCCC(O)(CCN1CCCCC1)c1ccccc1 (stereo not drawn),inactive: -2.45%
22,S=c1[nH]ccn1CCc1ccccc1,inactive: 10.9%
23,Cc1ccc(S(=O)(=O)NCC2CCCO2)cc1[N+](=O)[O-] (stereo not drawn),inactive: 3.65%

row,SMILES,growth rescue (activation)
1,Brc1ccc(C2=Nc3ccccc3C(c3ccncc3)=NN2)cc1,inactive: 1.55%
2,COC(=O)C(NS(=O)(=O)c1ccccc1Cl)c1ccccc1 (stereo not drawn),inactive: 4.6%
3,O=C(CSc1nnnn1C1CCCC1)NCc1cccs1,inactive: -17.9%
4,COC(=O)c1ccc(CNC(=O)c2c3c(nc4ccccc24)CCN(Cc2ccccc2)C3)cc1,inactive: -10.4%
5,CC(C)C12CN3CC(C(C)C)(CN(C1)C3c1ccc([N+](=O)[O-])o1)C2=O (stereo not drawn),inactive: 33.7%
6,COc1ccc(C2=NN(C(=O)CSc3ncccn3)C(c3cccc(OC)c3OC)C2)cc1 (stereo not drawn),inactive: 6.26%
7,COc1ccccc1N(C)S(=O)(=O)c1ccc(C(=O)Nc2ccc3nc(C)sc3c2)cc1,inactive: 40.2%
8,COc1ccccc1NC(=O)c1ccc(-n2cncn2)nc1,inactive: 12.9%
9,COc1ccc(OCC2CNC(=O)O2)cc1 (stereo not drawn),inactive: -21%
10,CCCCNC(=O)C1(C)CCN1C(=O)c1ccc2c(c1)CCO2 (stereo not drawn),inactive: -0.771%
11,CCOc1ccc(S(=O)(=O)N2CCCC(C(=O)NCc3cccnc3)C2)cc1C (stereo not drawn),inactive: 15.9%
12,COc1ccc(OC)c(-n2nnc(-c3nc(-c4cc(OC)c(OC)c(OC)c4)no3)c2C)c1,inactive: 0.711%
13,CCC(=O)Nc1ccc(Nc2nc(Cl)nc(Nc3ccc(NC(=O)CC)cc3)n2)cc1,inactive: 3.85%
14,Cc1cccc(OCCCC(=O)NCC(=O)Nc2cccc(C)c2C)c1,inactive: 0.957%
15,O=C(CNC(=O)c1ccc2ccccc2c1)NC1CCCCC1,inactive: 22.5%
16,CCC(CC)c1nnc(NC(=O)[C@@H](NC(=O)c2cccc(C)c2)C(C)C)s1,inactive: 11.4%
17,O=C(CCN1C(=O)c2ccccc2C1=O)Nc1sc2c(c1C(=O)NCC1CCCO1)CCC2 (stereo not drawn),inactive: 24%
18,CC(=O)Nc1ccc(-c2csc(NC(=O)CC(NC(C)=O)c3ccccc3)n2)cc1 (stereo not drawn),inactive: 5.98%
19,CC(=O)c1c(C)oc2c1cc(NS(=O)(=O)c1ccc(C(=O)O)cc1)c1ccccc12,inactive: -26.5%
20,O=S(=O)(c1ccc(F)cc1)N1CCN(CC(O)COCC2CCCO2)CC1 (stereo not drawn),inactive: 9.17%
21,Cc1cc(C(=O)N2CCC2(C)C(=O)NS(=O)(=O)c2ccccc2Cl)nn1C (stereo not drawn),inactive: -11.6%
22,Cc1oc(-c2cccs2)nc1CN1CCC(CO)(CCOc2ccccc2)CC1,inactive: -9.34%
23,CC(C)Cc1nc2sc3c(c2c(=O)n1N)CC(C)(C)OC3,inactive: 12.1%

row,SMILES,growth rescue (activation)
1,Cc1ccc(S(=O)(=O)NCC(=O)OC2CCOC2=O)cc1 (stereo not drawn),inactive: 10.9%
2,Cn1c(=O)n(C)c2cc(NS(=O)(=O)c3ccc(Br)s3)ccc21,inactive: 7.22%
3,O=C(O)/C=C/c1ccc(S(=O)(=O)Nc2ccccc2C(=O)Nc2ccc(F)cc2)cc1,inactive: -2.23%
4,CCc1nc2ccc(C(=O)NCCOc3ccc(OC)cc3)cn2c1N(C)Cc1nccn1C,inactive: 14.1%
5,CCN(CC)CCNC(=O)c1ccc(NC(=O)c2ccc(Cl)c(S(=O)(=O)N3CCCCCC3)c2)cc1,inactive: 19.9%
6,COc1cccc(NC(=O)c2ccc3c(c2)N(CC(=O)N2CCOCC2)C(=O)C(C)(C)O3)c1,inactive: 7.15%
7,Cc1ccsc1CN(C(=O)COc1ccccc1Cl)C1CCS(=O)(=O)C1 (stereo not drawn),inactive: 6.93%
8,O=C(COc1ccccc1)NC1CCS(=O)(=O)C1 (stereo not drawn),inactive: 0.428%
9,N#C/C(=C/c1ccc(-c2ccc(S(=O)(=O)N3CCOCC3)cc2)o1)C(=O)NC1CC1,inactive: 22%
10,Cc1cccc(OCC(=O)O/N=C(\N)c2ccncc2)c1,inactive: 31.3%
11,O=C(CCc1ccccc1)Nc1nc2n(n1)C(c1ccc(Cl)cc1)CC(=O)N2 (stereo not drawn),inactive: -17.5%
12,CCCCC1=NN(C(=O)c2ccco2)C(O)(C(F)(F)F)C1 (stereo not drawn),inactive: 20%
13,O=C(c1cccc(OC2CCN(Cc3ccc(F)cc3Cl)CC2)c1)N1CCCC1,inactive: -1.03%
14,C#CCN1C(=O)S/C(=C/c2cc(C)n(CC)c2C)C1=O,inactive: -14.9%
15,O=C(O)Cc1sc(Nc2ccc(Cl)cc2)nc1-c1cccs1,inactive: 17.7%
16,CCc1nc2c(OCC(=O)c3ccc(F)cc3)cccn2c1N(C)C(=O)COc1ccccc1,inactive: 7.19%
17,COc1ccc(OC)c(Nc2c3ccccc3nc3ccccc23)c1,inactive: -7.41%
18,Cc1ccc2c(c1)c(N=O)c(O)n2Cc1ccc(Cl)cc1,inactive: 3.94%
19,NS(=O)(=O)c1ccc(CCn2c(=S)[nH]c3ccccc3c2=O)cc1,inactive: 28.7%
20,O=C(Nc1cccc([N+](=O)[O-])c1)Nc1cccc([N+](=O)[O-])c1,inactive: -0.419%
21,Cc1c(Cl)cccc1NC(=O)CNc1ccccc1F,inactive: 22.3%
22,COc1ccc2c(C=O)cn(C)c2c1,inactive: 13.3%
